Data: publication PMC4336329 (PLoS ONE, 2015)
The whole screen tested about 310,000 compounds, of which about 14,000 (4.5%) showed an effect of 50% or more. The effect is printed as a negative number. The list shows a part of the results.
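Also: peak tail current of the secondary pulse compared with the same well before compound.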

Each compound was assayed against human ether-à-go-go-related gene (hERG) potassium channel (human, UniProt Q12809) (assay: primary screen, population patch clamp on CHO cells stably expressing hERG).
Sequence of human ether-à-go-go-related gene (hERG) potassium channel (Q12809 whole entry, looked up): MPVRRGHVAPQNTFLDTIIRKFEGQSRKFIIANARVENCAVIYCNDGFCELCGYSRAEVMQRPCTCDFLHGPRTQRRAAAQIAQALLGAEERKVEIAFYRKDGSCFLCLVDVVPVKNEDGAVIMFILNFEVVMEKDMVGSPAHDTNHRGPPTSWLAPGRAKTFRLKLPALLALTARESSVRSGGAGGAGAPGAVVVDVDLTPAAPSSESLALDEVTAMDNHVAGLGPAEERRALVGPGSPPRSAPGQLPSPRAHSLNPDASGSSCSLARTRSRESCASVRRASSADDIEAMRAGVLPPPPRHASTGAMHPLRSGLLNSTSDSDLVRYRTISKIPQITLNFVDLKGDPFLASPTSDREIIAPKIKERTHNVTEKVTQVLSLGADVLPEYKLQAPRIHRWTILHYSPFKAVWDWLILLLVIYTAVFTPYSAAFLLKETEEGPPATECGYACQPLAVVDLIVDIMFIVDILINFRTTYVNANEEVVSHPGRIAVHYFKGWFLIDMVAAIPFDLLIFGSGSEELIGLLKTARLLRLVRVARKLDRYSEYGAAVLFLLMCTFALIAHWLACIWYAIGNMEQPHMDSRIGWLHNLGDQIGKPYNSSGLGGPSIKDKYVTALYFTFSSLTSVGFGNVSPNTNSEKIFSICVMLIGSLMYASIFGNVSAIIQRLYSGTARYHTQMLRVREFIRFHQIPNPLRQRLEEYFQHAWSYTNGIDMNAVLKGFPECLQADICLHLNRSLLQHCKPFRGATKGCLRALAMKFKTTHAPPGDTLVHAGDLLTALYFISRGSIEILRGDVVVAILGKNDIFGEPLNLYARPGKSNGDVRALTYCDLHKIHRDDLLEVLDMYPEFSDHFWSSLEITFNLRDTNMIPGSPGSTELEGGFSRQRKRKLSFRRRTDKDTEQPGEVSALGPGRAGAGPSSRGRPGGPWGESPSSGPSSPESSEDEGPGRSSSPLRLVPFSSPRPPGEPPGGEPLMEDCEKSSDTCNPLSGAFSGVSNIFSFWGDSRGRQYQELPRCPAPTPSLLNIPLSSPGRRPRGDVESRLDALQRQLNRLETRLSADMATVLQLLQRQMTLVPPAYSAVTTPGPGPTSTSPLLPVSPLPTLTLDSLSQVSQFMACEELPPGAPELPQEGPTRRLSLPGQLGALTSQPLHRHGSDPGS
For `O=C(Nc1ccncc1)Nc1cccc(F)c1`, the “hERG current change (%, negative = inhibition) at 10uM” value was 9.86%.
With `COc1cc(C(=O)O)c2c(c1C)OC(=O)c1c(C)cc(O)c(C=O)c1O2` the “hERG current change (%, negative = inhibition) at 10uM” value was 21.3%.
With `O=C(/C=C/c1ccoc1)c1ccccc1O` the “hERG current change (%, negative = inhibition) at 10uM” value was -30.9%.
For `Cc1ccc2ccc3cccnc3c2n1`, the “hERG current change (%, negative = inhibition) at 10uM” value was 10.4%.
In the case of `CCc1ccccc1N(C(=O)CNC(=O)c1ccco1)C(C(=O)NC1CCCC1)c1cccnc1` (stereo not shown), the “hERG current change (%, negative = inhibition) at 10uM” value is reported as 31.3%.
`CCOc1ccc(C(C)NC(=S)NC2CCCCC2)cc1` (stereo not shown) was tested, and the “hERG current change (%, negative = inhibition) at 10uM” value was 17.2%.
In the case of `CCOc1ccc(CN(C)CC(=O)NCc2ccccc2)cc1`, the “hERG current change (%, negative = inhibition) at 10uM” value is reported as -76.1%.
With `CC(=O)c1ccc(NC(=O)CCc2nc3sc4c(c3c(=O)[nH]2)CCCC4)cc1` the “hERG current change (%, negative = inhibition) at 10uM” value was 8.92%.
For `C/C(=N\N=C(N)N)c1ccc(C)c(C)c1`, the “hERG current change (%, negative = inhibition) at 10uM” value was 4.41%.
With `Cn1cnnc1SCC(=O)N1CCN(C(=O)c2ccco2)CC1` the “hERG current change (%, negative = inhibition) at 10uM” value was 11%.
`NC(=O)Cn1cc(C(=O)COc2ccccc2)c2ccccc21` was tested, and the “hERG current change (%, negative = inhibition) at 10uM” value was -3.45%.
In the case of `O=C(/C=C/c1ccccc1Cl)Nc1ccc(-c2nnc3n2CCCCC3)cc1`, the “hERG current change (%, negative = inhibition) at 10uM” value is reported as -6.47%.
`CCOc1ccc(-n2nnc3c(=O)n(C/C=C/c4ccccc4)cnc32)cc1` was tested, and the “hERG current change (%, negative = inhibition) at 10uM” value was 16.2%.
For `COc1cccc(C(=O)Nc2ccc(-c3nc4ccccc4o3)c(O)c2)c1`, the “hERG current change (%, negative = inhibition) at 10uM” value was 6.18%.
`CCO/C=C1/C(=O)N(c2ccc(OC)cc2)C(=O)c2ccccc21` was tested, and the “hERG current change (%, negative = inhibition) at 10uM” value was -11.9%.
With `COc1cc(/C=C/C(=O)N2CCN(C(=O)/C=C/c3cc(OC)c(OC)c(OC)c3)CC2)cc(OC)c1OC` the “hERG current change (%, negative = inhibition) at 10uM” value was 6.31%.
`CCOC(=O)c1cnn(Cc2ccccc2)c1N` was tested, and the “hERG current change (%, negative = inhibition) at 10uM” value was 8.01%.
With `Oc1ccc(N=Nc2ccc3c(c2)OCCO3)c(O)c1` the “hERG current change (%, negative = inhibition) at 10uM” value was 22.6%.
For `N#Cc1cccc(NC(=O)COC(=O)c2ccccc2Sc2ccccc2C#N)c1`, the “hERG current change (%, negative = inhibition) at 10uM” value was -0.292%.
For `O=C(Nc1ccccc1N1CCOCC1)c1ccc2ccccc2n1`, the “hERG current change (%, negative = inhibition) at 10uM” value was 16.2%.
For `CCN(CC(=O)Nc1ccc(OC)cc1)C(=O)CSCc1c(C)noc1C`, the “hERG current change (%, negative = inhibition) at 10uM” value was -10.2%.
With `Cc1ccccc1OCCSc1nnc(-c2cccnc2)n1N` the “hERG current change (%, negative = inhibition) at 10uM” value was 34.6%.
`COc1ccc(CNc2ncc(-c3ccc(F)cc3)n2C)c2ccccc12.O=C(O)C(=O)O` was tested, and the “hERG current change (%, negative = inhibition) at 10uM” value was -35.1%.
For `O=C(Nc1cccc(C(=O)O)c1)/C(=C\c1ccc2c(c1)OCO2)NC(=O)c1ccccc1`, the “hERG current change (%, negative = inhibition) at 10uM” value was 19%.
In the case of `COCCn1c(=NC(=O)CCS(=O)(=O)c2ccccc2)sc2cc(F)ccc21`, the “hERG current change (%, negative = inhibition) at 10uM” value is reported as -8.27%.
